Measurements from the supplement of paper PMC11417369.
± gives the standard deviation of the averaged measurements. The list shows a part of the results.

system: PfAP2-LT AP2 domain (GST-tagged); test: gcPBM binding intensity (ln(normalized median fluorescence intensity)); higher = stronger DNA binding
Outline: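 For binding intensity, the highest Masliner-normalised natural-log median intensity across replicate spots of either probe orientation was taken. Protein bound to the array was stained with Alexa488 anti-GST antibody and scanned at 488 nm. The protein, GST-tagged P. falciparum DNA-binding domains from E. coli at about 25 μg on average, had been applied for 1 h to an Agilent 4 × 180k array of primer-extended double-stranded 36-bp intergenic genomic probes and negative controls.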

Sequence | gcPBM binding intensity (ln)
AAAAAAATAATATAATATTAAATCTTAGTTAATAAA [GTGCAC_negctrl_site658] | 8.38 ± 0.49
TTTTTTTTTTTTTTTTCTTTTTTTTTTTTAAATAAG [XGTACX_negctrl_site418] | 7.99 ± 0.3
TTTTTTTTTTTTTACACACCCAAATCACATACATAT [CACACA_site6089] | 8.99 ± 0.54
ATTTTTATATTTAATACACACATAAAATCATACCAT [CACACA_site23] | 8.85 ± 0.39
ATGTCAGGGAAAAAAACACACAAGAGTATGATATGT [CACACA_site2180] | 9.16 ± 0.45
TATATATTTATATATTGTACACTCTTATGTAGTGTA [XGTACX_site210] | 8.74 ± 0.4
TAAAAAAGAAAAAGAGCACACAAAAATATTTAACCT [CACACA_site8885] | 9.02 ± 0.47
TTACATATTTTCATTTGTACATATTCATTTTTTTTC [XGTACX_site6988] | 8.84 ± 0.44
AAATAACCCACGTGCATGCACTTCAATAACTGAACT | 9.15 ± 0.33
ATATATATATAATGTTGTACGTTTTATTCTCCCATT [XGTACX_site8071] | 9.17 ± 0.26
TTTATCATGAACAGAAGTACATTTATATCAATGTCT [XGTACX_site6470] | 8.65 ± 0.32
ATATATATATATTTTACACACAATGGAGAAAAAAAT [CACACA_site644] | 9.04 ± 0.42
TGGTATATACGACACACACACATATGTATAAATATA [CACACA_site6561] | 9.66 ± 0.4
TATTTTTAAAAGTTAACAGAAAAAATATAAATAAAT [GTGCAC_negctrl_site295] | 8.46 ± 0.41
TACCATAATCAATGCACACATAACAAAATATTATTA [CACACA_site2722] | 9.03 ± 0.42
TGTAATAAAATAATTAGTACACATATATGTATATTT [XGTACX_site5896] | 8.72 ± 0.33
TTTTCCCTTTTTTCCGCACACAATAAAATAAATAAA [CACACA_site2807] | 8.66 ± 0.45
TGTTGTTACCTATATACACACATATAAATATTATAG [CACACA_site7180] | 8.88 ± 0.41
TTTTTCAGAAAAGAAACACACATATAAATATTTATA [CACACA_site7170] | 8.53 ± 0.4

Sequence | gcPBM binding intensity (ln)
AAAAAAAAAAAAAAAACACACAAGGATCAGATAGAT [CACACA_site7743] | 8.95 ± 0.47
AGGGCATATATATATGCACACATACATATATACATG [CACACA_site9282] | 9.26 ± 0.46
AATATTATGATATTATGTACATATTAAAAGCACCAC [XGTACX_site6236] | 8.97 ± 0.37
TTTACACTTTTTTTTGTACACACTAAAAAGATTAAC [CACACA_site3933] | 8.71 ± 0.42
TTTTCATTCTTTTCCTTTGATTTACAATAGTATATT [GTGCAC_negctrl_site687] | 8.75 ± 0.59
CAAAATATTATCATGATGCACTTTACACTCTAAGGT | 8.97 ± 0.56
AAAAAATAAAAGTGGGGTACATGTCATTATGTGCAT [XGTACX_site3753] | 8.96 ± 0.45
TCATTATATTATTCTTGTACTTATATCCTTTTTTGA [XGTACX_site5320] | 8.82 ± 0.56
TAAAAGTTCACCTGTACACACATATATATCTGTACA [CACACA_site5019] | 9.28 ± 0.34
AATATAATATATTGCACACAAAAAGTGAATTATTCT [CACACA_site1684] | 9.11 ± 0.29
GTTTATTAGGAATTATGTACACAGTTTTATAAAGAA [XGTACX_site2994] | 8.51 ± 0.47
AATATATACATACATACATGCACATATATATATATA [TGCATGCA_site393] | 9.755 ± 0.05
AAATAGTTGTTATGGGTGCAAACCACATATATATAA [GTGCAC_site9428] | 8.75 ± 0.49
AGGCCTTTTAGTATTTCACACACGTAAATGTGTATA [CACACA_site8284] | 9.24 ± 0.33
ATTATTTACCACAACACACAAATATTTACCAATCAT [CACACA_site5472] | 9.02 ± 0.38
ATTTGTTTAAGTCACGAACACACATATATCATCAAT [CACACA_site985] | 8.98 ± 0.42
AAATATTATTCATTTTGTACGTATAATTTTTAATGA [XGTACX_site3509] | 8.72 ± 0.49
GATCTTTCACATATATATATAAAGGATATTATGGTA [CACACA_negctrl_site522] | 8.54 ± 0.4
AGTAGTCTGGAGAAAAGTACACAGTATCTGGTAGCT [XGTACX_site2544] | 8.88 ± 0.49

Sequence | gcPBM binding intensity (ln)
TATAATAATCCACAAGCACACACACCCACATATATA [CACACA_site8343] | 9.91 ± 0.32
ATTATATTATATTATACATGCATAATATTATATAAA [TGCATGCA_site647] | 8.6 ± 0.33
TTATTACACAAATGGTGTACTTTTGAGGAACCAAAA [XGTACX_site4279] | 8.41 ± 0.48
ACATTGAATAAATAATGTACATATATAATATATATT [XGTACX_site95] | 8.77 ± 0.4
AAATTAAATGTAAGCACACATAAATTATACGCATAT [CACACA_site3335] | 9.11 ± 0.38
TTGCAGTATTTCGGAACACACAAACATAAATATGTA [CACACA_site5307] | 8.74 ± 0.47
TATTCTAATATATGCATACACACAAATGTGAATATA [CACACA_site2143] | 8.82 ± 0.38
CACATTATGTATCATACACACAAATAAATATAGAAT [CACACA_site609] | 9.35 ± 0.33
TTTATATGTATTAAGTGTACACATATAATGTGTTTT [XGTACX_site4890] | 8.88 ± 0.45
ATGTTTGATGCTACACGTACACACCTTGCAAATATT [XGTACX_site1644] | 9.23 ± 0.31
TATATTATTCATTAAGCACACATTATTTTTATAATA [CACACA_site6056] | 8.62 ± 0.47
TATTATTTACCTTGCTAGTTCGTTCCAAATTTTATG [XGTACX_negctrl_site197] | 8.89 ± 0.49
TTTTTTTTTTTTTTTACACACACAAAATATTATATG [CACACA_site2471] | 9.2 ± 0.41
AAAACTATAATAAAAGGTACACATTTATTTTTTTCT [XGTACX_site730] | 8.6 ± 0.49
AAAACAAATTTTAATGAGAATATGAAAAAAAAATAT [XGTACX_negctrl_site268] | 8.56 ± 0.49
CTTTGTGGTATAGATACACACTATATTAATATGAAC [CACACA_site7081] | 8.78 ± 0.45
AAATAAAAAGGGTGCACACAAAAATATATATATATA [CACACA_site1728] | 9.66 ± 0.18
ATTTTAAATATTTGTGGTACCCCTTTTTTGTAACAA [XGTACX_site5590] | 8.61 ± 0.49
CAAAATTGAAGGAACACACATACATATATATATATG [CACACA_site179] | 9.08 ± 0.41
